According to patent publication US20230012428A1 (JIANGSU HENGRUI MEDICINE, published 2023):

B1: h1830-S85 (bispecific antibody, human IgG4 S228P, kappa)
heavy: QVQLQESGPGLVKPSQTLSLTCTVSGGSISDGSAYWSWIRQHPGKGLEYIGFISRAGSTYNTPSLKGRVTISRDTSKNQFSLKLSSVTAADTAVYYCARSGGWLAPFDYWGRGTLVTVSSASTKGPSVFPLAPCSRSTSESTAALGCLVKDYFPEPVTVSWNSGALTSGVHTFPAVLQSSGLYSLSSVVTVPSSSLGTKTYTCNVDHKPSNTKVDKRV[human IgG4 Fc with S228P (EU numbers) not given here]GGGGSGGGGSGGGGGGEEELQMIQPEKLLLVTVGETATLHCTVTSLLPVGPVLWFRGVGPGRELIYVSGRGHFPRVTTVSDLTKRNNKDFSIRISSITPADVGTYYCVKFRKGSPEDVEFKSGPGTEMALGAKPS
light: DIVMTQSPDSLAVSLGERATINCKSSQSLFYHSNQKHSLAWYQQKPGQPPKLLIYGASTRESGVPDRFSGSGSGTDFTLTISSLQAEDVAVYYCQQYYGYPYTFGGGTKVEIKRTVAAPSVFIFPPSDEQLKSGTASVVCLLNNFYPREAKVQWKVDNALQSGNSQESVTEQDSKDSTYSLSSTLTLSKADYEKHKVYACEVTHQGLSSPVTKSFNRGEC
notes: h1830 IgG4 with SIRPγ variant S85, GS16 linker; also called PD-L1-CD47 bifunctional fusion protein
B2: h1830-19-S79 (bispecific antibody, human IgG4 S228P, kappa)
heavy: QVQLQESGPGLVKPSQTLSLTCTVSGGSISDGSAYWSWIRQHPGKGLEYIGFISRAGSTYNTPSLKGRVTISRDTSKNQFSLKLSSVTAADTAVYYCARSGGWLAPFDYWGRGTLVTVSSASTKGPSVFPLAPCSRSTSESTAALGCLVKDYFPEPVTVSWNSGALTSGVHTFPAVLQSSGLYSLSSVVTVPSSSLGTKTYTCNVDHKPSNTKVDKRV[human IgG4 Fc with S228P (EU numbers) not given here]GGGGSGGGGSGGGGSGGGGEEELQMIQPEKLLLVTVGETATLHCTVTSLWPVGPVLWFRGVGPGRELIYRTGTGRFPRVTTVSDLTKRNNMDFSIRISSITPADVGTYYCVKFRKGSPEDVEFKSGPGTEVALGAKPS
light: B1 light
notes: h1830 IgG4 with SIRPγ variant S79, GS19 linker; also called PD-L1-CD47 bifunctional fusion protein
B3: h1830-S58 (bispecific antibody, human IgG4 S228P, kappa)
heavy: QVQLQESGPGLVKPSQTLSLTCTVSGGSISDGSAYWSWIRQHPGKGLEYIGFISRAGSTYNTPSLKGRVTISRDTSKNQFSLKLSSVTAADTAVYYCARSGGWLAPFDYWGRGTLVTVSSASTKGPSVFPLAPCSRSTSESTAALGCLVKDYFPEPVTVSWNSGALTSGVHTFPAVLQSSGLYSLSSVVTVPSSSLGTKTYTCNVDHKPSNTKVDKRV[human IgG4 Fc with S228P (EU numbers) not given here]GGGGSGGGGSGGGGGGEEELQMIQPEKLLLVTVGETATLHCTVTSLLPVGPVLWFRGVGPGRELIYMSGRGHFPRVTTVSDLTKRNNMDFSIRISSITPADVGTYYCVKFRKGSPEDVEFKSGPGTEMALGAKPS
light: B1 light
notes: h1830 IgG4 with SIRPγ variant S58, GS16 linker; also called PD-L1-CD47 bifunctional fusion protein
B4: h1830-S12 (bispecific antibody, human IgG4 S228P, kappa)
heavy: QVQLQESGPGLVKPSQTLSLTCTVSGGSISDGSAYWSWIRQHPGKGLEYIGFISRAGSTYNTPSLKGRVTISRDTSKNQFSLKLSSVTAADTAVYYCARSGGWLAPFDYWGRGTLVTVSSASTKGPSVFPLAPCSRSTSESTAALGCLVKDYFPEPVTVSWNSGALTSGVHTFPAVLQSSGLYSLSSVVTVPSSSLGTKTYTCNVDHKPSNTKVDKRV[human IgG4 Fc with S228P (EU numbers) not given here]GGGGSGGGGSGGGGGGEEELQMIQPEKLLLVTVGETATLHCTVTSLLPVGPVLWFRGVGPGRELIYVSGRGHFPRVTTVSDLTKRENKDFSIRISSITPADVGTYYCVKFRKGSPEDVEFKSGPGTEMALGAKPS
light: B1 light
notes: h1830 IgG4 with SIRPγ variant S12, GS16 linker; also called PD-L1-CD47 bifunctional fusion protein
B5: h1830-S37 (bispecific antibody, human IgG4 S228P, kappa)
heavy: QVQLQESGPGLVKPSQTLSLTCTVSGGSISDGSAYWSWIRQHPGKGLEYIGFISRAGSTYNTPSLKGRVTISRDTSKNQFSLKLSSVTAADTAVYYCARSGGWLAPFDYWGRGTLVTVSSASTKGPSVFPLAPCSRSTSESTAALGCLVKDYFPEPVTVSWNSGALTSGVHTFPAVLQSSGLYSLSSVVTVPSSSLGTKTYTCNVDHKPSNTKVDKRV[human IgG4 Fc with S228P (EU numbers) not given here]GGGGSGGGGSGGGGGGEEELQMIQPEKLLLVTVGETATLHCTVTSLLPVGPVLWFRGVGPGRELIYMSGRGHFPRVTTVSDLTKRNNKDFSIRISSITPADVGTYYCVKFRKGSPEDVEFKSGPGTEMALGAKPS
light: B1 light
notes: also called PD-L1-CD47 bifunctional fusion protein
B6: h1830-S19 (bispecific antibody, human IgG4 S228P, kappa)
heavy: QVQLQESGPGLVKPSQTLSLTCTVSGGSISDGSAYWSWIRQHPGKGLEYIGFISRAGSTYNTPSLKGRVTISRDTSKNQFSLKLSSVTAADTAVYYCARSGGWLAPFDYWGRGTLVTVSSASTKGPSVFPLAPCSRSTSESTAALGCLVKDYFPEPVTVSWNSGALTSGVHTFPAVLQSSGLYSLSSVVTVPSSSLGTKTYTCNVDHKPSNTKVDKRV[human IgG4 Fc with S228P (EU numbers) not given here]GGGGSGGGGSGGGGGGEEELQMIQPEKLLLVTVGETATLHCTVTSLLPVGPVLWFRGVGPGRELIYVSGRGHFPRVTTVSDLTKRNNRDFSIRISSITPADVGTYYCVKFRKGSPEDVEFKSGPGTEMALGAKPS
light: B1 light
notes: h1830 IgG4 with SIRPγ variant S19, GS16 linker; also called PD-L1-CD47 bifunctional fusion protein

Target: T1, PD-L1-Fc (prepared in-house) (human, UniProt Q9NZQ7 fragment, limits assumed)
T1 construct: Prepared in-house; also called human PD-L1-Fc; not shown: Fc
Experiment: blocking ELISA, PD-L1-Fc coated, competitor biotin-labeled B7-1

| Binder | IC50 [mg/L] |
| --- | --- |
| B1 | 0.148 |
| B2 | 0.0988 |
| B3 | 0.127 |
| B4 | 0.0304 |
| B5 | 0.169 |
| B6 | 0.0342 |

Target: T2, hPD-L1-His (human, UniProt Q9NZQ7 fragment)
T2 construct: Bought; also called Human PD-L1-his; Human PD-L1; not shown: His tag
Experiment: SPR (Biacore T200), binder captured on Protein A chip, antigen in flow

| Binder | Kd [nM] |
| --- | --- |
| B1 | 0.374 |
| B3 | 0.374 |
| B4 | 0.4 |
| B5 | 0.387 |
| B6 | 0.399 |

Target: T3, Human CD47-his (CD47-ECD-His) (human, UniProt Q08722 fragment, limits assumed)
T3 construct: also called hCD47; free human CD47 protein
Experiment: as above

| Binder | Kd [nM] |
| --- | --- |
| B1 | 3.84 |
| B3 | 1.95 |
| B4 | 4.36 |
| B5 | 1.72 |
| B6 | 5.6 |

Target: T4, mPD-L1 (mouse, UniProt Q9EP73 fragment)
T4 construct: Bought; also called Mouse PD-L1-his; Mouse PD-L1
Experiment: as above

| Binder | Kd [nM] |
| --- | --- |
| B1 | 85.8 |
| B3 | 75.1 |
| B4 | 69.8 |
| B5 | 70.9 |
| B6 | 68.6 |

Target: T5, Cyno CD47-his (cyno, UniProt A0A2K5X523 19-139)
T5 construct: extracellular domain; not shown: His tag
Experiment: as above

| Binder | Kd [nM] |
| --- | --- |
| B1 | 4.63 |
| B3 | 2.18 |
| B4 | 5.11 |
| B5 | 2.03 |
| B6 | 6.55 |

Target: T6, Cyno PD-L1-His (cyno, UniProt G7PSE7 19-239)
T6 construct: Bought; not shown: His tag
Experiment: as above

| Binder | Kd [nM] |
| --- | --- |
| B1 | 0.397 |
| B3 | 0.398 |
| B4 | 0.429 |
| B5 | 0.409 |
| B6 | 0.424 |

Target: T1, PD-L1-Fc (prepared in-house)
T1 sequence (Q9NZQ7 19-238 limits assumed): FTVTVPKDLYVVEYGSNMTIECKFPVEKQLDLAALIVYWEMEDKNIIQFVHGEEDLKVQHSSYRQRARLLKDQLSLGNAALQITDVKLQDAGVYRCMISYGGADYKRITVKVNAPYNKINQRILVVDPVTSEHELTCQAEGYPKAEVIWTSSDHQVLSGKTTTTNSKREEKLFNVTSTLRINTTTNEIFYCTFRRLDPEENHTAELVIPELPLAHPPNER
Experiment: blocking ELISA, PD-L1-Fc coated, competitor biotin-labeled PD-1

| Binder | IC50 [mg/L] |
| --- | --- |
| B1 | 0.0814 |
| B2 | 0.0647 |
| B3 | 0.102 |
| B4 | 0.0429 |
| B5 | 0.146 |
| B6 | 0.0518 |

Target: T3, Human CD47-his (CD47-ECD-His)
T3 sequence (Q08722 19-139 limits assumed): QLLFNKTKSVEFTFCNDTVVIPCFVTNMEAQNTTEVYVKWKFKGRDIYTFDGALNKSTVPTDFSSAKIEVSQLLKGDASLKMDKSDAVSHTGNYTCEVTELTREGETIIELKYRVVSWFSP
Experiment: ELISA, CD47-his coated on plate

| Binder | EC50 [mg/L] |
| --- | --- |
| B1 | 0.0712 |
| B2 | 0.0905 |
| B3 | 0.0408 |
| B4 | 0.0511 |
| B5 | 0.0538 |
| B6 | 0.0673 |

Target: T5, Cyno CD47-his
Experiment: ELISA, CD47-his coated on plate

| Binder | EC50 [mg/L] |
| --- | --- |
| B1 | 0.0667 |
| B2 | 0.0435 |
| B3 | 0.0618 |
| B4 | 0.0789 |
| B5 | 0.0515 |
| B6 | 0.0634 |

Target: T3, Human CD47-his (CD47-ECD-His)
Experiment: ELISA, CD47-his coated on plate
Remark: another data set of the same source

| Binder | EC50 [mg/L] |
| --- | --- |
| B1 | 0.0847 |
| B5 | 0.0407 |

Target: T5, Cyno CD47-his
Experiment: ELISA, CD47-his coated on plate
Remark: another data set of the same source

| Binder | EC50 [mg/L] |
| --- | --- |
| B1 | 0.0641 |
| B5 | 0.0306 |

Target: T2, hPD-L1-His
T2 sequence (Q9NZQ7 19-239 limits assumed): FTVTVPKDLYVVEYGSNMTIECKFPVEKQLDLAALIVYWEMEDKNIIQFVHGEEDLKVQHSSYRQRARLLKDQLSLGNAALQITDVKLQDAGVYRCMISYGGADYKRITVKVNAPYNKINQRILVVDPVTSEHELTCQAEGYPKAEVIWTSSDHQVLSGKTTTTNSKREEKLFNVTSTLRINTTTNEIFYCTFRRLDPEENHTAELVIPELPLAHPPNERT
Experiment: ELISA, PD-L1-his coated on plate

| Binder | EC50 [mg/L] |
| --- | --- |
| B1 | 0.142 |
| B2 | 0.0952 |
| B3 | 0.161 |
| B4 | 0.146 |
| B5 | 0.0993 |
| B6 | 0.167 |

Target: T4, mPD-L1
T4 sequence (Q9EP73 19-238 limits assumed): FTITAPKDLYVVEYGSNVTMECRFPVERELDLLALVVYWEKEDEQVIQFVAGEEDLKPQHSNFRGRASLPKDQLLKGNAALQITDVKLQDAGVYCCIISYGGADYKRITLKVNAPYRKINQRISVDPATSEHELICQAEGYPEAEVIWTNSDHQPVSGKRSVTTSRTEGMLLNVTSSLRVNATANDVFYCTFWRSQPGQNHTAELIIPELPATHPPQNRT
Experiment: ELISA, PD-L1-his coated on plate

| Binder | EC50 [mg/L] |
| --- | --- |
| B1 | 0.0275 |
| B2 | 0.0582 |
| B3 | 0.0335 |
| B4 | 0.0343 |
| B5 | 0.032 |
| B6 | 0.034 |

Target: T6, Cyno PD-L1-His
T6 sequence (G7PSE7 entry or part of it): as the sequence (Q9NZQ7 19-239 limits assumed) above, with A33T, A34S, S62N, R68Q, Q82R, F173L, T185A, T192I, H215L counted along it
Experiment: ELISA, PD-L1-his coated on plate

| Binder | EC50 [mg/L] |
| --- | --- |
| B1 | 0.207 |
| B2 | 0.254 |
| B3 | 0.32 |
| B4 | 0.178 |
| B5 | 0.177 |
| B6 | 0.179 |
